Laboratory results as given in ChEMBL document CHEMBL4888484, “Replenishing the malaria drug discovery pipeline: Screening and hit evaluation of the MMV Hit Generation Library 1 (HGL1) against asexual blood stage Plasmodium falciparum ,using a nano luciferase reporter read-out” (2022).
About 540 (0.36%) of roughly 150,000 compounds showed an effect of 50% or more. This is one part of the list.

These compounds were tested on Plasmodium falciparum (assay: Primary screen in NF54 nanoGlo assay, in single point, at 2uM, 72h; a lower Z score goes with more inhibition). Conditions: timepoint 72 hour.
Format: functional, Erythrocyte
In the case of O=C(CN1C(=O)OC[C@@H]1c1ccccc1)N1CCCCCC1, the “% Inhibition” value is reported as -3% and the Z score is reported as 0.49.
For C=C(C)C1OCCC1CNC(=O)c1ccc(Cl)cn1 (stereo unspecified), the “% Inhibition” value was -7% and the Z score was 0.98.
For Cc1ncc(CC(=O)NCc2cccnc2Oc2ccccc2F)c(=O)[nH]1, the “% Inhibition” value was -20% and the Z score was 1.94.
In the case of CCC=C(C)C(=O)N1CC2(CCOCC2)[C@H]1c1ccccc1, the “% Inhibition” value is reported as -3% and the Z score is reported as 0.41.
CCc1ccccc1NC(=O)CN1N=C(c2ccccc2)c2cc(Cl)ccc2S1(=O)=O was tested, and the “% Inhibition” value was -17% and the Z score was 1.57.
In the case of COc1ccc(C(=O)N[C@@H]2CCC[C@@H]2C(=O)NCCc2ccccn2)cn1, the “% Inhibition” value is reported as -1% and the Z score is reported as 0.19.
For O=C(COc1ccc(Cl)cc1Cl)N[C@H]1C[C@H]2C(=O)NCC(=O)N2C1, the “% Inhibition” value was -18% and the Z score was 2.22.
For Cc1ccc(N(C)C2CCN(C(=O)C[C@H]3CCCO3)CC2)nn1, the “% Inhibition” value was -4% and the Z score was 0.49.
CN(C(=O)CN(Cc1cscn1)c1ccccc1)C1CC1 was tested, and the “% Inhibition” value was -2% and the Z score was 0.31.
For Cn1cc(Cl)cc1C(=O)N[C@@](C)(Cn1cccn1)C(N)=O, the “% Inhibition” value was -9% and the Z score was 1.01.
Cc1nc([C@H](C)Nc2ncnc3[nH]cnc23)c(C)s1 was tested, and the “% Inhibition” value was -6% and the Z score was 1.09.
In the case of C=CCC[C@H](O)CN(CCCOC)Cc1ccc(F)cc1F, the “% Inhibition” value is reported as -10% and the Z score is reported as 1.49.
For COCCN1C(=O)c2ccc(C(=O)Nc3nnc(C(C)C)s3)cc2C1=O, the “% Inhibition” value was -17% and the Z score was 2.09.
For CC1(C)CCC[C@H](CNC(=O)c2ccnn2CC(F)F)O1, the “% Inhibition” value was -4% and the Z score was 0.58.
In the case of COc1ccccc1C(=O)Nc1cc(-c2ccoc2C)nn1CCO, the “% Inhibition” value is reported as -4% and the Z score is reported as 0.56.
For Cc1ccc(CN(C(=O)[C@H]2OCCO[C@H]2C)c2ccc(F)cc2)o1, the “% Inhibition” value was 8% and the Z score was -0.97.
For Cn1cc(C(=O)N2CC[C@H](n3cnc4ccccc43)C2)nn1, the “% Inhibition” value was -15% and the Z score was 1.98.
For FC(F)c1cc(C(F)F)n2nc(-c3nnc(-c4cccc(C(F)(F)F)c4)o3)cc2n1, the “% Inhibition” value was -38% and the Z score was 4.43.
With O=C(c1cc2ccccc2[nH]1)N1CCC(Cn2cnc3ccccc32)CC1 the “% Inhibition” value was 14% and the Z score was -1.87.
In the case of COc1ccc2c(c1)OC(C)(C)CN(Cc1cn(C)cn1)C2, the “% Inhibition” value is reported as 2% and the Z score is reported as -0.31.
O=C(O)[C@H]1CC[C@@H](C(=O)N(CCc2ccc(F)cc2)Cc2cccnc2)C1 was tested, and the “% Inhibition” value was -2% and the Z score was 0.41.
With CCN(C(=O)c1sc(-c2cccs2)nc1C)c1ccccc1C the “% Inhibition” value was 4% and the Z score was -0.83.
For CC1CCN(c2ccc(C(=O)NCCN3CCOCC3)cc2S(=O)(=O)N2CCC(C)CC2)CC1, the “% Inhibition” value was -12% and the Z score was 1.94.
With Cc1nc(C)c(S(=O)(=O)NCc2cnn3c2CCCC3)s1 the “% Inhibition” value was -13% and the Z score was 1.6.
CCOc1ccc(OCc2ccc(C(=O)N3CCCCC3)o2)cc1 was tested, and the “% Inhibition” value was -11% and the Z score was 1.5.
C[C@@H]1CN(C(=O)C(c2ccccc2)N(C)C)CCN1C(=O)OC(C)(C)C (stereo partly specified) was tested, and the “% Inhibition” value was 0% and the Z score was 0.03.
With Cc1cccnc1CN(C)Cc1cccc([C@H](C)N(C)C)c1 the “% Inhibition” value was -4% and the Z score was 0.8.
In the case of Cc1cc(CN(C)C(=O)c2ccco2)no1, the “% Inhibition” value is reported as -10% and the Z score is reported as 1.43.
In the case of Cc1nc2ncccn2c1C(=O)NCc1cnc2c(c1)CCC2, the “% Inhibition” value is reported as -1% and the Z score is reported as 0.16.
CCOC(=O)N1CCC(N2Cc3cccc(C(=O)NCc4ccc(C)cc4)c3C2=O)CC1 was tested, and the “% Inhibition” value was 2% and the Z score was -0.28.
For CCN1CCOC(CNCC(C#N)CCC#N)C1 (stereo unspecified), the “% Inhibition” value was -6% and the Z score was 0.63.
For Cc1cc(NC(=O)N2CCC(C#N)CC2)n([C@@H](C)C2CC2)n1, the “% Inhibition” value was -9% and the Z score was 1.72.
CCN(CC)C(=O)N1CCN(C(=O)c2ccccn2)[C@@H]2CS(=O)(=O)C[C@@H]21 was tested, and the “% Inhibition” value was -4% and the Z score was 0.85.
O=C(O)[C@H]1CCCCN1C(=O)Cc1cccc(Br)c1 was tested, and the “% Inhibition” value was -4% and the Z score was 0.69.
In the case of COCCn1nnnc1[C@@H]1CN(c2nc(N)nc3c2CCCC3)CCO1, the “% Inhibition” value is reported as -6% and the Z score is reported as 0.74.
With CCN1C[C@@H](CN(C)C(=O)C2(C)COC2)CC1=O the “% Inhibition” value was -2% and the Z score was 0.43.
For C[C@H](CO)NS(=O)(=O)Cc1ccccc1Cl, the “% Inhibition” value was -1% and the Z score was 0.15.
For O=S1(=O)CC[C@H](c2csc(Cc3c(F)cccc3Cl)n2)C1, the “% Inhibition” value was -13% and the Z score was 1.09.
For CCCN(CCC)S(=O)(=O)N1CCN(Cc2cccnc2N)CC1, the “% Inhibition” value was -3% and the Z score was 0.62.
With FC(F)(F)c1cccc2c(NCc3cccnc3N3CCOCC3)ccnc12 the “% Inhibition” value was -10% and the Z score was 1.15.
With CC(C)(CNC(=O)c1ccc2[nH]c(=O)[nH]c2c1)c1cccs1 the “% Inhibition” value was -2% and the Z score was 0.38.
CCc1nnc(NCc2csc(C)n2)s1 was tested, and the “% Inhibition” value was 9% and the Z score was -1.19.
For CC[C@](O)(CCCO)CNC(=O)c1cc(Cl)c(C)c(Cl)c1, the “% Inhibition” value was -3% and the Z score was 0.65.
